{"source": "PubChem BioAssay AID485294", "about": "(National Center for Advancing Translational Sciences (NCATS), 2010)", "note": "Hit rate of the full screen: of about 370,000 compounds, about 150 (0.041%) were called active. The shares of active, inactive and inconclusive entries below differ from those in the screen. Calls come from the whole dose curve; as a rule, active = well fitted inhibition curve with a large enough effect; inconclusive = small, poorly fitted or top-dose-only effect; inactive = flat fitted curve, though single readings scatter. Potencies of inconclusive entries are left out as doubtful fits. Potency is the fitted concentration of half-maximal effect; tags give direction and shape of the fitted curve.", "data": [{"biological_target": "Beta-lactamase (Escherichia coli (strain K12)) (UniProt P00811)", "sequence (P00811 whole entry, looked up)": "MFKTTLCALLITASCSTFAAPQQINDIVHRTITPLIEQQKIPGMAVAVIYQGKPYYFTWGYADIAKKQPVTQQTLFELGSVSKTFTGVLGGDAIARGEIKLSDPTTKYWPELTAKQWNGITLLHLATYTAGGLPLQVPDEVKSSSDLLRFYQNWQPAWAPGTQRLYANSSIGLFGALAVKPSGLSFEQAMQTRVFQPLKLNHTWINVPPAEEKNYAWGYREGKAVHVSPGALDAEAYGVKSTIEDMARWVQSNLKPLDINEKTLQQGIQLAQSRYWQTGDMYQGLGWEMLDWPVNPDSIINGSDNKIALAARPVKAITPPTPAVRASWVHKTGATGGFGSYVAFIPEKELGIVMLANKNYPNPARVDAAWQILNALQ", "assay": "qHTS Inhibitors of AmpC Beta-Lactamase (assay with detergent); note: nearly all actives have a fitted effect of over 25% in size", "details": "AmpC hydrolysis of nitrocefin, absorbance 480 nm, 0.01% Triton; series mostly up to 114 µM", "procedure,_shortened": "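20 mM phosphate pH 7.0 + 0.01% (detergent screen) or 0.0001% Triton X-100; 5.3 nM AmpC reagent; cpd preinc 15 min RT; nitrocefin (800 uM stock) to start; A480 q20 s × 4 min; Activity was normalised to no-enzyme and no-compound control wells.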", "values": [{"compound": "COc1ccc(NC(=O)Cn2cc(C(=O)c3ccc(C)c(C)c3)c(=O)c3cc(OC)ccc32)cc1", "Potency": "inactive"}, {"compound": "O=C(NCc1cccs1)c1nc(-c2cccs2)no1", "Potency": "inconclusive [inhibitor, single point]"}, {"compound": "O=C(COC(=O)COc1ccc(Cl)cc1Br)NCCC1=CCCCC1", "Potency": "inconclusive [inhibitor, single point]"}, {"compound": "O=C(NNC(=O)c1ccccc1F)c1ccco1", "Potency": "inconclusive [inhibitor, full curve, poor fit]"}, {"compound": "COCCCNC(=S)NNC(=O)c1cc(Cl)c(O)c(Cl)c1", "Potency": "inactive"}, {"compound": "CN(Cc1ccccc1)C(=O)CN(C1CCCCC1)S(C)(=O)=O", "Potency": "inconclusive [inhibitor, full curve]"}, {"compound": "CCOC(=O)C1CCCN(c2c(N3CCN(c4ccccn4)CC3)c(=O)c2=O)C1", "note": "(stereo not drawn)", "Potency": "inconclusive [inhibitor, full curve, poor fit]"}, {"compound": "O=C(CSc1ccc2ccccc2c1)NCCc1ccc(O)c(O)c1", "Potency": "inconclusive [inhibitor, partial curve, poor fit]"}, {"compound": "Fc1cccc(CN2CCc3nc(Nc4ccc5c(c4)OCCO5)ncc3C2)c1F", "Potency": "inactive"}, {"compound": "O=C(N/N=C\\c1ccc(Oc2ccccc2)cc1)c1csnn1", "Potency": "inactive"}, {"compound": "Cc1ccc(OCC(=O)NNC(=O)C(C)Sc2ncnc3sc(C)c(C)c23)cc1", "note": "(stereo not drawn)", "Potency": "inactive"}, {"compound": "CCC(C)(C)n1nnnc1C(c1ccncc1)N1CCN(c2cccc(OC)c2)CC1", "note": "(stereo not drawn)", "Potency": "inactive"}, {"compound": "Cc1ccccc1OCCCC(=O)Nc1ccc(Br)cc1", "Potency": "inconclusive [inhibitor, full curve, poor fit]"}, {"compound": "CC(C)C(=O)Nc1cccc2nsnc12", "Potency": "inconclusive [inhibitor, full curve, poor fit]"}, {"compound": "Cc1ccc(CSc2nnc(SCC(=O)N/N=C/C=C/c3ccccc3[N+](=O)[O-])s2)cc1", "Potency": "inactive"}, {"compound": "CCNC(=S)NS(=O)(=O)c1ccc(C)cc1", "Potency": "inactive"}, {"compound": "Cc1ccc(S(=O)(=O)N2CC=C(C(=O)NC3CCCC3)CC2)cc1", "Potency": "inconclusive [inhibitor, full curve, poor fit]"}, {"compound": "Oc1c(C(c2ccco2)N2CCC3(CC2)OCCO3)sc2ncnn12", "note": "(stereo not drawn)", "Potency": "inconclusive [inhibitor, full curve, poor fit]"}, {"compound": "COc1cccc(C(=O)OC(C)CN2CCCC2)c1", "note": "(stereo not drawn)", "Potency": "inactive"}, {"compound": "CN(C)Cc1nc2ccccc2c(=O)n1Cc1nc(C(C)(C)C)cs1", "Potency": "inconclusive [inhibitor, full curve, poor fit]"}, {"compound": "S=C(c1cn(CCOc2cccc3ccccc23)c2ccccc12)N1CCCC1", "Potency": "inconclusive [inhibitor, full curve, poor fit]"}, {"compound": "CC(C)(C)n1nnnc1C(c1ccccc1F)N(Cc1ccco1)CC1CCCO1", "note": "(stereo not drawn)", "Potency": "inconclusive [inhibitor, partial curve, poor fit]"}, {"compound": "O=C(O)/C=C/C(=O)Nc1ccc(OCc2ccccc2)cc1", "Potency": "inactive"}, {"compound": "CCCOc1ccc(/C(O)=C2/C(=O)C(=O)N(CCN(C)C)C2c2ccc(O)c(OC)c2)cc1", "note": "(stereo not drawn)", "Potency": "inconclusive [inhibitor, full curve]"}, {"compound": "Cc1ccc(OCCC(=O)N(CC(=O)Nc2ccccc2C(F)(F)F)Cc2ccco2)cc1", "Potency": "inconclusive [inhibitor, full curve, poor fit]"}, {"compound": "Cc1ccc(Cl)c(Nc2ccccc2C(=O)O)c1Cl", "Potency": "inconclusive [inhibitor, partial curve]"}, {"compound": "COc1cc(OC)cc(C(=O)NNC(=O)c2ccccn2)c1", "Potency": "inconclusive [inhibitor, full curve, poor fit]"}, {"compound": "CC1CC(C)CN(Cc2nc3c(c(=O)n(C)c(=O)n3C)n2CCN2CCOCC2)C1", "note": "(stereo not drawn)", "Potency": "inconclusive [inhibitor, partial curve, poor fit]"}, {"compound": "Cc1cccc(CNC(=O)Cn2nc(C)c3nn(-c4ccc(Cl)cc4)c(C)c3c2=O)c1", "Potency": "inactive"}, {"compound": "CCn1c(=N)n(CC(=O)OC)c2ccccc21", "Potency": "inconclusive [inhibitor, full curve, poor fit]"}, {"compound": "Cc1cc(C)c(NC(=O)Cn2cc3c(n2)CCCC3)c(C)c1", "Potency": "inconclusive [inhibitor, partial curve]"}, {"compound": "CCCC(NS(=O)(=O)c1ccc(C)cc1)C(=O)O", "note": "(stereo not drawn)", "Potency": "inconclusive [inhibitor, full curve, poor fit]"}, {"compound": "COCc1cc(C2C(C(=O)c3ccco3)=C(O)C(=O)N2CCOCCO)ccc1O", "note": "(stereo not drawn)", "Potency": "inconclusive [inhibitor, single point]"}, {"compound": "Cc1ccc(S(=O)(=O)N2CCCC(C(=O)NCC3CCCO3)C2)cc1", "note": "(stereo not drawn)", "Potency": "inconclusive [inhibitor, full curve]"}, {"compound": "COc1cccc2cc(C(=O)N3CCC(C)CC3)c(=O)oc12", "Potency": "inconclusive [inhibitor, partial curve, poor fit]"}, {"compound": "COc1ccc(NC(=O)/C(C#N)=C/c2cccnc2)c(OC)c1", "Potency": "inconclusive [inhibitor, full curve]"}, {"compound": "CC(=O)Nc1ccc(NC(=O)C(C)OC(=O)c2ccc(OCc3c(C)noc3C)cc2)cc1", "note": "(stereo not drawn)", "Potency": "inconclusive [inhibitor, full curve, poor fit]"}, {"compound": "CCc1nonc1NC(=O)COc1ccc(Cl)c(C)c1", "Potency": "inactive"}, {"compound": "CC(C)(C)c1ccc(CN2C(=O)CN=C(c3ccccc3)c3ccccc32)cc1", "Potency": "inconclusive [inhibitor, partial curve, poor fit]"}, {"compound": "Cc1ccccc1NC(=O)CSc1ccc(-c2cccnc2)nn1", "Potency": "inactive"}, {"compound": "COc1ccc(C2C(C(=O)/C=C/c3ccco3)=C(O)C(=O)N2CCN2CCOCC2)cc1", "note": "(stereo not drawn)", "Potency": "inconclusive [inhibitor, full curve, poor fit]"}, {"compound": "Cn1c(=O)c2c(SCc3cccnc3)nc(CC(C)(C)C)nc2n(C)c1=O", "Potency": "inconclusive [inhibitor, single point]"}, {"compound": "CN(C)CCCN(C(=O)CCc1ccccc1)c1nc2ccc(F)cc2s1", "Potency": "inactive"}, {"compound": "CCOc1ccccc1/C=C(\\C#N)C(=O)Nc1cccc(C(=O)O)c1", "Potency": "inconclusive [inhibitor, partial curve]"}, {"compound": "CCN1CCN(C(=O)/C=C/c2ccccc2[N+](=O)[O-])CC1", "Potency": "inconclusive [inhibitor, single point]"}, {"compound": "O=C1N=C(N2CCOCC2)S/C1=C1\\C(=O)N(Cc2ccccc2)c2ccccc21", "Potency": "inactive"}, {"compound": "CC(C)Cn1c(O)c(N=NC(=O)c2cccc(S(=O)(=O)N3CCCCC3)c2)c2ccccc21", "Potency": "inconclusive [inhibitor, full curve]"}, {"compound": "Cc1ccc(S(=O)(=O)Nc2nonc2C)cc1", "Potency": "inconclusive [inhibitor, single point]"}, {"compound": "Cc1nnc(SCC(=O)Nc2nnc(-c3ccccc3)o2)s1", "Potency": "inactive"}, {"compound": "CC(=O)Nc1cc(-c2nn3c(C)nnc3s2)ccc1C", "Potency": "inconclusive [inhibitor, partial curve, poor fit]"}, {"compound": "COc1cc(C)nn1-c1ccc(Cl)cc1", "Potency": "inactive"}, {"compound": "Cc1ccccc1OCC(=O)NNC(=O)Nc1ccc(Cl)cc1", "Potency": "inconclusive [inhibitor, full curve, poor fit]"}, {"compound": "COc1ccc(CNC(=O)C2CCN(S(=O)(=O)c3cccc(-c4noc(C)n4)c3)CC2)cc1", "Potency": "inactive"}, {"compound": "O=C(COn1nnc2ccc(Cl)cc21)NC12CC3CC(CC(C3)C1)C2", "Potency": "inconclusive [inhibitor, full curve, poor fit]"}, {"compound": "Cc1cccc(Cn2c(CN3CCC(C(=O)NC(C)C)CC3)cc3ccccc32)c1", "Potency": "inactive"}, {"compound": "COc1ccc(CCNc2ncnc3sc(C)cc23)cc1OC", "Potency": "inconclusive [inhibitor, partial curve, poor fit]"}, {"compound": "O=C(CSc1nc2c([nH]c3ccccc32)c(=O)n1-c1ccccc1F)Nc1cccc(Cl)c1", "Potency": "inactive"}, {"compound": "C=CCC(NCc1ccccc1)c1ccc(OC)cc1", "note": "(stereo not drawn)", "Potency": "inconclusive [inhibitor, partial curve, poor fit]"}, {"compound": "CCC(=O)N1CCc2cc(S(=O)(=O)CCC(=O)Nc3cc(Cl)ccc3OC)ccc21", "Potency": "inactive"}, {"compound": "COc1ccc(C2(NC(C)=O)CCN(C(=O)c3cccs3)CC2)cc1", "Potency": "inconclusive [inhibitor, partial curve, poor fit]"}, {"compound": "Cc1cccc(-n2ncc3c(NCCOCCO)ncnc32)c1", "Potency": "inactive"}, {"compound": "COc1ccc(C(C(=O)NCCC(C)C)N(CCCO)C(=O)c2snc(C(N)=O)c2N)cc1OC", "note": "(stereo not drawn)", "Potency": "inconclusive [inhibitor, partial curve, poor fit]"}, {"compound": "COc1ccc(C(=O)Nn2c(CC(C)C)nc3cc(Cl)ccc3c2=O)c(OC)c1", "Potency": "inconclusive [inhibitor, full curve, poor fit]"}, {"compound": "COCc1c(C(=O)N2CCN(Cc3c(F)cccc3Cl)CC2)oc2ccccc12", "Potency": "inconclusive [inhibitor, single point]"}, {"compound": "Cc1ccc(-c2csc3nc(CSc4nnc(-c5ccc(Cl)cc5)n4C)[nH]c(=O)c23)cc1", "Potency": "inconclusive [inhibitor, full curve]"}, {"compound": "CCOC(=O)N1CCN(C(=O)CC(=O)Nc2ccc3nc4n(c(=O)c3c2)CCCCC4)CC1", "Potency": "inconclusive [inhibitor, full curve, poor fit]"}, {"compound": "O=C(Nc1ccc(Br)cc1)c1ccc(N2C(=O)C3CCCCC3C2=O)cc1", "note": "(stereo not drawn)", "Potency": "inconclusive [inhibitor, full curve]"}, {"compound": "CCc1noc(C)c1C(=O)N1CCN(S(=O)(=O)c2ccc(C)cc2C)CC1", "Potency": "inconclusive [inhibitor, partial curve, poor fit]"}]}]}
